Among all 46,000 compounds or so, about 60 (0.1%) were called active. Not shown: some 3% with an inconclusive outcome. Calls come from the whole dose curve; as a rule, active = well fitted inhibition curve with a large enough effect; inconclusive = small, poorly fitted or top-dose-only effect; inactive = no such curve, though single readings can be large or run the other way. Some of the results follow.
Assay: Primary qHTS assay for Inhibitors of ovarian cancer metastasis using an organotypic tumor microenvironment (TME) model. Note: nearly all actives have a fitted effect of over 65% in size.
Details: SKOV3ip1-GFP adhesion/invasion on 3D omental model, fluorescence; series mostly up to 45.8 µM; activity change, negative = inhibition: at the top concentration
From the text: PI: Ernst Lengyel MD., Ph.D. Department of Obstetrics and Gynecology, Section of Gynecologic Oncology University of Chicago Medicine, Chicago, Illinois. The tumor microenvironment (TME) is a key determinant of metastatic efficiency. We performed a quantitative high-throughput screen (qHTS) of diverse medicinal chemistry tractable scaffolds (44,420 compounds) and pharmacologically active small molecules (386 compounds) using a layered organotypic, robust assay representing the ovarian cancer metastatic TME. This 3D model contains primary human mesothelial cells, fibroblasts, and extracellular matrix, to which fluorescently labeled ovarian cancer cells are added. Initially, 100 compounds inhibiting ovarian cancer adhesion/invasion to the 3D model in a dose-dependent manner were identified. Of those, eight compounds were confirmed active in five high-grade serous ovarian cancer cell lines and were further validated in secondary in vitro and in vivo biological assays. […] Specifically, NCGC00117362 and PP-121 inhibited ovarian cancer adhesion, invasion, and proliferation, whereas milciclib inhibited ovarian cancer invasion and proliferation. […] To evaluate the clinical potential of NCGC00117362, structure - activity relationship studies were performed. […] The three compounds identified have promise as therapeutics for prevention and treatment of ovarian cancer metastasis.
PROTOCOL TABLE (as described by Inglese J, Shamu CE and Guy RK. 2007) SEQUENCE No. (e.g., 1, 2, 3, etc.); […] (e.g., Cells, Incubation, Reagent, etc.); VALUE; DESCRIPTION. 1; Cells; 4 uL; primary human omental fibroblast, black, clear bottom, low base, 1536-well Aurora assay plate. 2; Incubation; 48 hr; 37C. 3; Cells; 3 uL; 1,200 SKOV3ip1-GFP cells. 4; Compounds; 23nL; acoustic dispenser. 5; Incubation; 2 hr; room temperature. 6; Incubation; 16 hr; 37C. 7; Wash; 5 uL; 1x PBS. 8; Fixing; 5 uL; 4% paraformaldehyde (PFA). 9; Incubation; 15 min; room temperature 10; Wash, 5 uL; 1x PBS. 11; Detection; Fluorescence, excitation filter 488 nm, emission filter 509 nm. NOTES (numbers refer to Sequence numbers above) 1. For the 1,536-well format, 40 primary human omental fibroblasts and 400 mesothelial cells were seeded with 0.02 µg fibronectin and 0.02 µg collagen type I in 4 µL of growth media (2.3 mm2; Supplementary Fig. S1A). 2. Assay plates were incubated for 48 hours at 37 C. 3. After incubation, 1,200 SKOV3ip1-GFP were seeded in 3 µL of serum-free media (growth media minus FBS) on top of primary human omental cells. 4. Compounds or controls were added to each well immediately after the addition of the cancer cells. Compounds were screened in four doses (0.36-46 µmol/L), and the plates contained the positive control (Tomatine) in eight doses (0.035-75 µmol/L) and DMSO (equal volume controls) 5 - 6. The plates were incubated at room temperature for 2 hours and then at 37 degrees C for 16 hours. 7 - 10. Following incubation, the media were aspirated and each well washed with PBS (5 µL) and then fixed with 4% paraformaldehyde (PFA; 5 µL). After 15 minutes, the PFA solution was aspirated, PBS (5 µL) was added. 11. The number of GFP-labeled cells analyzed using a fluorescent cytometer TTP LabTech Acumen eX3 using 488 nm excitation filter and 509 nm emission filter. Data was normalized to the DMSO treated for negative and Tomatine treated wells for positive control. REFERENCES: Inglese J, Shamu CE and Guy RK, Reporting data from high throughput screening of small molecule libraries, Nature Chemical Biology, 2007, 3(8): 438-441. doi.org/10.1038/nchembio0807-438. Yasgar A, Shinn P, Jadhav A, Auld DS, Michael S, Zheng W, Austin CP, Inglese J and Simeonov A, Compound Management for Quantitative High-Throughput Screening. J. Assoc. Lab. Auto., 2008, 13: 79-89. doi: 10.1016/j.jala.2007.12.004.

Activity change, negative = inhibition, inactive:
COc1ccc(Nc2oc(-c3ccc(COc4ccc(OC)cc4)o3)nc2C#N)cc1 -3.72%
O=C(Cn1ncc2c3ccccc3n(Cc3ccc(Cl)cc3)c2c1=O)NCCCc1ccccc1 -11.9%
Cc1oc(-c2ccc(C(=O)Nc3ccc(F)cc3F)cc2)nc1COc1ccccc1 5.08%
CC(=O)Nc1ccc(-n2cc3c(c2-c2ccc(C)cc2)c(=O)n(C)c(=O)n3C)cc1 -5.41%
CC(C)(C)C1CCc2nc(NC(=O)COc3ccc(F)cc3)sc2C1 (stereo unspecified) 1.27%
CCC(=O)Nc1ccccc1-c1nc2ccccc2n(C(CC)C(=O)Nc2cccc(C(C)=O)c2)c1=O (stereo unspecified) 13.5%
CCOc1nc(NC(=O)NS(=O)(=O)Oc2ccc(Cl)cc2)nc(-c2ccccc2)n1 -10.6%
CCCC(=O)Oc1c(Sc2ccc(Cl)cc2)c(C)nn1-c1ccccc1 0.851%
CCOc1ccc(C(C)C)cc1S(=O)(=O)Nc1cccc(-c2ccc(N3CCOCC3)nn2)c1 5.16%
CCN(C(=O)c1cc(S(=O)(=O)N2CCOCC2)cn1C)c1ccc(OC)cc1 3.9%
Cc1ccc(CN2C(=O)c3ccccc3S(=O)(=O)c3ccc(C(=O)OCC4CCCO4)cc32)cc1 (stereo unspecified) -16.5%
Cn1cc(C(=O)O)c(=O)c2cc(S(=O)(=O)N3CCCCC3)ccc21 -1.49%
CN(C)C(=O)c1ccc2c(c1)N(CC(=O)NCc1ccc(F)cc1)C(=O)C1CCCCN21 (stereo unspecified) -0.522%
Cn1c(SCC(=O)Nc2ccc(F)cc2)nc2c([nH]c3ccccc32)c1=O 19%
COc1cc(OC)cc(-c2nnc(SCC(=O)N3CCC(C)CC3)o2)c1 7.65%
CC(=O)c1ccc(NC(=O)Cn2c(-n3nc(C)cc3C)nc(C)cc2=O)cc1 0.868%
CC(C)(C)c1ccc(OCC(=O)N(Cc2ccco2)Cc2ccccc2F)cc1 -8%
COc1ccc(OC)c(C2C(C(N)=O)=C(C)Nc3nc(-c4cccc(Cl)c4)nn32)c1 (stereo unspecified) -7.96%
Cc1cccn2c(=O)c3cc(C(=O)NCCc4ccc(S(N)(=O)=O)cc4)n(C)c3nc12 -6.87%
CCOc1ccccc1Nc1sc(C(=O)c2ccc(Cl)cc2)c(N)c1C#N 12.7%
O=C(c1ccc(CSc2nc3ccncc3n2Cc2ccccc2F)cc1)N1CCCCC1 -2.1%
Cc1c(CCC(=O)NCCc2ccccc2F)c(=O)oc2cc(O)ccc12 -4.05%
CCc1ccc2c(c1)c(=O)c(C(=O)c1ccc(C)cc1)cn2CC(=O)Nc1ccc2c(c1)OCCO2 -19.4%
CC(C)c1ccc(NC(=O)CNC(=O)Cn2ccc3ccccc3c2=O)cc1 -4.92%
CN(C)c1ccc(/C=C(\C#N)c2nc3ccccc3c(=O)[nH]2)cc1 -9.28%
O=C(NCCc1ccccc1)c1cc(-c2ccccc2)nc2n[nH]c(-c3ccccc3)c12 -21.2%
O=C(NCc1ccc(F)cc1)c1cccc(N2CCCS2(=O)=O)c1 5.92%
Cc1ccc(-c2cc(C(=O)NCCc3ccccc3)c3ccccc3n2)cc1C 9.83%
Cc1ccccc1NC(=O)Cn1c(=O)n(Cc2ccco2)c(=O)c2cccnc21 -4.25%
COC(=O)c1c(NC(=O)CCCOc2ccccc2)sc2c1CCC(C)C2 (stereo unspecified) 6.84%
Cc1ccc(Cl)cc1NC(=O)C1CCCN(S(=O)(=O)c2c(C)noc2/C=C/N(C)C)C1 (stereo unspecified) -15.4%
Cc1ccc2nc(/C(C#N)=C/c3ccc(-c4ccc(F)cc4F)o3)[nH]c2c1 -11.2%
Cc1cc(Nc2cccc(Cl)c2)nc2ccc(NC(=O)c3ccc(F)cc3Cl)cc12 -22.3%
Fc1ccc(C2=NC(c3cccc(C(F)(F)F)c3)=Nc3ccccc3N2)cc1 1.43%
Cc1ccc(CN2CCC(CNC(=O)Nc3c(C)cccc3C)C2)cc1 (stereo unspecified) 5.74%
COc1ccccc1-c1c(C)nn2c(C(F)(F)F)cc(-c3ccccc3)nc12 13.8%
O=S1(=O)N=C(Nc2cccc(C(F)(F)F)c2)c2ccccc21 -7.29%
CN(C)CCN(Cc1ccc(Cl)cc1)c1ccccn1 -4.09%
O=C(c1ccc(CS(=O)c2ccccc2Cl)o1)N1CCN(c2ccccc2F)CC1 (stereo unspecified) -34.3%
COc1ccc(CCCc2nnc(SCC(=O)Nc3ccc(C)c(C)c3)o2)cc1 6.06%
CC(C)NS(=O)(=O)c1ccc(OCC(=O)N2CCN(c3ccccc3F)CC2)cc1 -3.76%
Cc1cc(C)c2c(CC(=O)Nc3nnc(CC(C)C)s3)coc2c1 3.12%
CSc1cccc(NC(=O)c2ccc3c(c2)c(C)c(C)n3Cc2ccc(F)cc2)c1 -9.84%
CC(C)(C)c1ccc(OCC(=O)Nc2c(C(=O)c3ccc(F)cc3)oc3ccccc23)cc1 -1.12%
COc1cccc(C(=O)N(Cc2cccc(Cl)c2)Cc2ccco2)c1 13.8%
O=C(CCC1N=C2c3ccccc3N=C(SCc3cccc(Cl)c3)N2C1=O)NCc1cccs1 (stereo unspecified) 1.45%
Cc1nn(C)c2c1c(-c1ccccc1)cc(=O)n2CC(=O)NC(C)(C)C 0.658%
CCC(C)n1c(=N)c(S(=O)(=O)c2ccccc2)cc2c(=O)n3ccccc3nc21 (stereo unspecified) 1.46%
CCOC(=O)c1ccccc1NC(=O)CSc1ncc2c(n1)-c1ccccc1N(CC)S2(=O)=O 3.32%
CCOc1ccccc1NC(=O)N1CCN(Cc2cc(=O)n3nc(-c4ccc(C)cc4)sc3n2)CC1 -1.39%
CCOc1ccc(S(=O)(=O)N(CC(=O)NCCSCc2ccccc2)c2ccccc2)cc1 92.6%
COc1cc2nc(SCc3ccc(F)cc3)n3nc(CCn4c(C)nc5ccccc54)nc3c2cc1OC 8.3%
CCc1ccc(-c2ccc3nnc(SCC(=O)Nc4cccc(C(C)=O)c4)n3n2)cc1 6.64%
N#Cc1c(-c2ccccc2)cc(-c2ccccc2)nc1SCC(=O)Nc1ccc(Cl)cc1 -9.01%
Cc1ccccc1-c1nn2c(=O)cc(CN3CCN(C(=O)c4ccccc4Br)CC3)nc2s1 2.87%
CCc1ccccc1NC(=O)C(CCSC)NS(=O)(=O)c1ccc2c(c1)oc(=O)n2C (stereo unspecified) -2.24%
CCOC(=O)N1CCN(C(=O)c2cnn(-c3cccc(F)c3)c2-n2cccc2)CC1 5.36%
Cc1cccc(Oc2nc3c(c(=O)n(C)c(=O)n3C)n2C)c1C 21.7%
COc1ccc(NC(=O)c2c(C)oc3ccc(O)c(CN4CCCC(C)C4)c23)cc1 (stereo unspecified) 2.82%
COc1cccc(CNC(=O)c2ccc(CS(=O)c3ccccc3)o2)c1 (stereo unspecified) -4.72%
COc1ccc(CCNC(=O)Cn2c(-c3cccs3)cc3cc(F)ccc32)cc1OC 4.62%
COc1ccccc1OCC(=O)Nc1cc(-c2ccc(C)cc2)no1 9.03%
COc1cccc([C@H]2Nc3ccc(S(=O)(=O)Nc4cc(C)ccc4C)cc3[C@H]3C=CC[C@H]32)c1 -9.26%
CC1CCN(S(=O)(=O)c2ccc3nc(N4CCN(c5ccccc5)CC4)ccc3c2)CC1 2.91%
Cn1c(=O)c(-c2c(Cl)cccc2Cl)cc2cnc(Nc3cccc(C(=O)O)c3)nc21 5.12%
Cc1cc(C)c(OCC(=O)Nc2cccc(-c3nc4ncccc4o3)c2)c(Br)c1 11.4%
CC(=O)c1cc(-c2ccc(F)cc2)n(CC(=O)NCc2ccc(C)cc2)c1C 5.08%
CCOC(=O)c1cccc(NC(=O)NCc2ccc3c(c2)CCN3C(=O)CC)c1 7.34%
CCCn1c2ccccc2c2cnn(CC(=O)NCCc3cc(OC)ccc3OC)c(=O)c21 7.75%
Cc1nc(-c2ccc(F)cc2)sc1CCNC(=O)C(=O)Nc1ccc2c(c1)OCO2 4.61%
COc1cccc(-c2nc(CS(=O)(=O)CC(=O)NCCCc3ccccc3)c(C)o2)c1 8.16%
Cc1ccc(S(=O)(=O)N2CCCc3cc(NC(=O)c4ccc(C(C)(C)C)cc4)ccc32)cc1 0.393%
Cc1ccc(CSc2ncccc2C(=O)O)cc1 -1.11%
CCC(=O)Nc1ccccc1-c1nc2ccccc2n(CC(=O)c2ccc(Br)cc2)c1=O -3.74%
CCc1ccc(C(=O)c2cn(CC(=O)Nc3ccc(OC)c(Cl)c3)c3nc(C)ccc3c2=O)cc1 3.3%

outcome, inactive:
CCCCN(CC)CCCn1cnc2c([nH]c3ccc(Cl)cc32)c1=O
Cc1ccc(NC(=O)C(Cc2ccccc2)NS(=O)(=O)c2ccc3c(c2)c(=O)n(C)c(=O)n3C)cc1 (stereo unspecified)
COc1cccc(-c2cc(C(=O)NCc3ccccc3)[nH]n2)c1
Cc1ccc2c(c1)cc1c(=O)n(CC(=O)NCc3ccco3)nc(C)n12
COc1ccc(CCNC(=O)CCn2c(=O)c3ccccc3n(CC(=O)Nc3cccc(C)c3)c2=O)cc1OC
CCOc1ccc(NC(=O)NCCCN2CCN(c3ccc(OC)cc3)CC2)cc1
O=C(Nc1ccccc1C(=O)OCc1cc(=O)n2ccsc2n1)c1cccc(F)c1
CCC(=O)N1CCc2cc(S(=O)(=O)CCC(=O)N(C)c3ccc(OC)cc3)ccc21
CCc1ccc(S(=O)(=O)c2cn(C)c3cc(N4CCN(CC)CC4)c(F)cc3c2=O)cc1
CCC(=O)Nc1cccc(-c2cn3c(C)csc3n2)c1
Cc1ccc(NC(=O)Cn2c(=O)nc(-c3ccccc3F)c3cc(Cl)ccc32)c(Br)c1
CCCNC(=O)Cn1c(=O)cc(C)c2c(C)nn(-c3cccc(F)c3)c21
COc1ccc(NC(=O)c2oc3ccccc3c2NC(=O)c2cc(OC)c(OC)c(OC)c2)cc1
COc1ccc(CCNC(=O)CN2C(=O)COc3ccccc32)cc1OC
COc1ccc(C2=C(N3CCN(c4cc(Cl)ccc4C)CC3)c3ccccc3C2=O)cc1
Fc1cccc(CSc2nc(NCCc3ccccc3)c3ccccc3n2)c1
Oc1c(C(c2ccc(Cl)cc2)N2CCOCC2)sc2nc(-c3ccco3)nn12 (stereo unspecified)
COc1cc(NS(=O)(=O)c2cccs2)cc(OC)c1
CCN(CC)c1ccc(NC(=O)c2sc3nc(-c4ccccc4)cn3c2C)cc1
Cc1ccc(Cl)cc1NC(=O)Cn1cc(S(=O)(=O)Cc2ccccc2Cl)c2ccccc21
CC1=C(C(=O)Nc2cccc(C(F)(F)F)c2)C(c2ccccn2)n2ncnc2N1 (stereo unspecified)

Source: PubChem BioAssay AID1963576 (National Center for Advancing Translational Sciences (NCATS), 2024)
